The list shows a part of the results.
system: PF3D7_0420300 AP2 domain 1 (GST-tagged); assay: gcPBM binding intensity (ln(normalized median fluorescence intensity)); higher = stronger DNA binding
Summary of the method: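 Binding intensity is the highest Masliner-normalised natural-log median intensity over replicate spots in either probe orientation. To obtain it, GST-tagged P. falciparum DNA-binding domains made in E. coli were incubated for 1 h on an Agilent 4 × 180k array of primer-extended double-stranded 36-bp intergenic genomic probes plus negative controls. Detection used Alexa488 anti-GST antibody with scanning at 488 nm.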

Sequence	gcPBM binding intensity (ln)
GATATGATTATGTGATGGTGTTTTTGATAGATATTT [CACACA_negctrl_site1445]	9.57
GAATAATTAAAAGGTAGTACAAAGGTTATCAAAAGG [XGTACX_site8496]	9.42
TTGTTCTTTTGAAAGGTGCAAAAGAAAAATAATTAA	8.94
AGAAAACCGAAAGAGACACACAACATGTCGATTTAG [CACACA_site3764]	9.62
ATAAAGATAATATATGCACACATATAAATATATAAA [CACACA_site9153]	9.37
ATAAAAACTACATTCACACAAAAAAAAATCTACAAA [CACACA_site6109]	9.38
AATAATATTAATAAAAGTACATGTGTAATATATATA [XGTACX_site5922]	9.51
ATATATATATGTTAGGTGCATATATATTTTGTGGAT [GTGCAC_site9964]	9.34
ATATATATAATATATTGTACATATAATATATATATA [XGTACX_site4792]	9.09
ACATCTAGGCTTATTTTATGATACATGTGAATATAT [TGCATGCA_negctrl_site325]	9.33
GTTTTTGAGTAGTACACACACAATAAGGATGGATTC [CACACA_site3192]	9.75
TGAAAAGATAAAAAATGTACATATATATTATATATA [XGTACX_site5678]	9.24
TTTCTAAATAATATACACAAAAAAATAAAACACTAA [TGCATGCA_negctrl_site43]	9.45
ATACACAATTATTTTCCTATTATGCAAGCAAATTTA [CACACA_negctrl_site1176]	9.13
GTTTAACTGTTTTATACACACAATGTAGACAATAAA [CACACA_site8967]	9.39
GTACAAAAAAAGTGTACACAAAGTAAGACTTTAATT [CACACA_site5068]	9.28
CACTGTAAATAGAAAGTGCAAAAATTGTAAATAAAA [GTGCAC_site9980]	9.26
TAAATACATTGACACACACACAAATATGTACATACA [CACACA_site7371]	10
ACTTGATTACACAACCACAAGTAATTGAAATTATTT [XGTACX_negctrl_site297]	9.33
AGTTTTATGTAGTGTTGTACTTTATACAAATATATA [XGTACX_site990]	9.34
AGTAATAATATAATTTGTACATATATATATTATAAA [XGTACX_site7138]	9.06
TACAAAAATGTAGTCACACATATGTATACTTTTATG [CACACA_site5607]	9.21

Sequence	gcPBM binding intensity (ln)
TTTCTAATTTATATCACACACATATATAAATAGTAA [CACACA_site6156]	9.43
ATATATATAATTTAAAGTACATATTTAAGAATGAAA [XGTACX_site2238]	9.16
AATGTTTAATATAACGCATGCCTTAATATAGAATGC [TGCATGCA_site463]	9.13
TATCATGTGCGTGCGTGTACTTAACACACATAATAT [XGTACX_site2404]	9.35
TATTTTTATAAAAACTGTACATAATAAATAAAAATA [XGTACX_site4743]	9.19
AATCAAAGTAATTTAACACACAATTTTAATACTGTT [CACACA_site7169]	9.41
TTATATGTTTCTTCACGTACGTATAAAAATGAACTT [XGTACX_site1764]	9.13
TTGTTCATTATGCACAGTACATAAAAAGTAAAAAAA [XGTACX_site2403]	9.09
TCATTTATTTTAAGGTGTACCGTTTAAAATCACAAA [XGTACX_site3243]	8.88
ATATTGACAAATATTACACACATATATATATATATA [CACACA_site4079]	9.43
TTTTTTTGCGCGGGAAGAATAAAATTTATAGAATAT [TGCATGCA_negctrl_site306]	9.01
AATTTACACGTACGTGTACACACAAAAATATGTTTT [CACACA_site8242]	9.56
CAGACATTAATAAGTAGTACACAATAATTGACTAGG [XGTACX_site854]	9.48
TCTCATTTTCCCTAAAAAAAAAAATAAATAAAAATA [TGCATGCA_negctrl_site580]	8.63
TTTTTCCATATTGTAGCATGCAGTATATATATCATG [TGCATGCA_site530]	9.24
ATATTATTTATGTATGCATGCGGCGAAATGGGCTTG [TGCATGCA_site28]	9.36
AATGGGTTACACATATGTACATAAAATATAAAAAAT [XGTACX_site3440]	9.42
TATATACATATATATATATGTATAGATAGATACATT [CACACA_negctrl_site1511]	9.19
TAACCACAATTTTAATGTACATATATATTTATATAT [XGTACX_site8968]	9.12
TTTTGAAAAAATTTTTATAAAAGAATAAAATTATTA [XGTACX_negctrl_site570]	8.55
AATATTTTACAATACACATGCAAATAATATTCTAAA [TGCATGCA_site618]	9.17
TAAAAATGGAAACACACACACATAAATATATTTTAT [CACACA_site2513]	10.1

Sequence	gcPBM binding intensity (ln)
AAAAAAAAAAAACACACACACACACCCAAATATATA [CACACA_site150]	10.1
CATAATACATATAACACACACAATTATACATAAAAT [CACACA_site3233]	10.1
ATATATATATATATATGTACTTAAAAAATATATACA [XGTACX_site8952]	9.07
AAAAAAAAAAAAAAAAAAAAAAAAAAAATACGAAAG [GTGCAC_negctrl_site729]	9.18
CTTTTTAATTAATACACACACACACGGATATAAATA [CACACA_site7145]	10.2
TATTTTTTTTGTGTGTGTCCTCATGTAATACTGCAA [XGTACX_site1380]	9.66
TATATTAAACTTTGCACACATAATTTAACTACAAAG [CACACA_site3441]	9.28
AATCATTTATTGATGGTGCAATATACCATCTAATGA [GTGCAC_site9440]	8.9
GTTCTACAAGCCACTGCATGCTGATATAGAATAAAT [TGCATGCA_site138]	9.08
ATATGATTATTATTATATAAATTATAAAGTCTAATA [GTGCAC_negctrl_site586]	8.75
TCATATATCCTTATCACACATATAATAAATTCCCTT [CACACA_site4457]	9.25
AATATTTCTCATTTTGTGCACTGAAAAATGTAATAT	9.1
TTCTTTGCTTTTCAAACACACAAAAGTTATTATAGT [CACACA_site6390]	9.33
GGAATTGAAAAATCAGCACACACACTAATACATACA [CACACA_site9059]	9.86
AAATGGCAATAATGGACACACAAATGTTGTTATATA [CACACA_site2819]	9.43
AATAATTGTTAAAGGTGTACAATACCTACATAAGAA [XGTACX_site4215]	9.31
AAAAAGGAAATTTACACACACATATAATATACATTA [CACACA_site3296]	9.77
ATTTACCAGACCATATGTACATACATAAAACACACA [XGTACX_site3788]	9.63
CAATGCAAGGCTTAAAAAAATGGGCATATTATATAT [GTGCAC_negctrl_site304]	9.15
TTTTTTTACAACATTACACACAAATATTCTGGGTTA [CACACA_site3755]	9.44
AATATTATATTAAAATGTACAAAAATGAATTACTTT [XGTACX_site1473]	9.12
TCACATTTTGGACACGTGCACATATATTTGATACAT	9.38

Sequence	gcPBM binding intensity (ln)
AAAATTAATTATTACAAAAATGAAAAGACATATTTT [GTGCAC_negctrl_site735]	9.07
ATTTATATATAAATGTGTACATATATATATATAAAC [XGTACX_site7592]	9.27
TACCATGTTCAAATTACACACATATAATGCAATATA [CACACA_site7034]	9.43
CTGAAATTAACAAAAGTGCATAAAAATAAAAAATAT [GTGCAC_site9652]	9.41
ATTGTAAGTAAACACACACACATATATCTGTATTTA [CACACA_site4542]	9.93
ACGTGTGATTATAATTGTACTTTAATGTAAGAATGA [XGTACX_site1109]	9.27
ATATATATATATATATGTACTTATAATAATATTCAA [XGTACX_site2593]	9.13
TTATTTTATTTTTTTGTGCACATATATATTTATAAA [GTGCAC_site9615]	9.29
AATTTTATTTAATTTTTTTGGGAAATGATAAAATTT [CACACA_negctrl_site934]	8.83
AAAAAAAAAAAAAAAACACACATACATACATACATA [CACACA_site6125]	9.61
TTTTTTTTTTTTTTTGCACACACCATATTTATAGAA [CACACA_site3310]	9.46
AGAAAAGTGATATATACACACTTATATTTATTTATA [CACACA_site7350]	9.25
TTTTATAAGGTGAAAAGTACATATAACTTATTTTAC [XGTACX_site5572]	9.08
TATTGTCTATAATAAACACACAATATTAAAAATATA [CACACA_site6624]	9.24
ATCTTTCCTATTTGTAGTACAAAAAAAAAAAAAAAA [XGTACX_site5485]	8.78
TTAAATGATGTAAACACACACATATACATTATTATA [CACACA_site3162]	9.48
TACACAAGGGGAAAAATATATATATATATATATATA [TGCATGCA_negctrl_site217]	8.95
TAAAAAATTTTATATTCACACACATATATATATATA [CACACA_site8109]	9.45
TAAAAGTATATATATACACACATAAATATATATGTA [CACACA_site663]	9.35
AAAATTTAAAGCATGACACACAATTATATTATGTGC [CACACA_site3435]	9.34
TTGTGAAATAAAATTTGTACACACATATATATATAT [XGTACX_site1078]	9.4
TTTTTTTTGGAATTCACACAAATATAACATGGGTAT [CACACA_site5185]	9.04

From the supplement of paper PMC11417369
